Measured values reported in PubChem BioAssay AID1508623 (National Center for Advancing Translational Sciences (NCATS), 2021).
Hit rate of the full screen: of about 48,000 compounds, about 450 (0.94%) were called active. Not shown: some 19% with an inconclusive outcome. The call rests on the fitted dose curve; in most records, active means well fitted inhibition curve with a large enough effect; inconclusive means small, poorly fitted or top-dose-only effect; inactive means no such curve, though single readings can be large or run the other way. The list shows a part of the results.

assay: Primary qHTS for Identification of Small Molecule Inhibitors of Huntingtin Promoter Activity; conditions: HEK293 HTT promoter firefly luciferase reporter (activity 0% = vehicle and -100% = no light), 24 h; series mostly up to 57.5 µM; activity change, negative = inhibition: at the top concentration; further: nearly all actives have a fitted effect of over 50% in size
Procedure, shortened: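 HEK293 Fluc reporter, 2,500 cells/well, 24 h pre-culture; cpds up to 57.5 uM final, 24 h 37 degrees C; Dual-Glo, 10 min RT; normalized vehicle = 0%, zero RLU = -100%.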

Activity change, negative = inhibition, inactive:
COc1ccc(NC(=O)CCS(=O)(=O)c2ccc3nc(C)sc3c2)cc1Cl -4.02%
Cc1ccc(OC(=O)CSc2nnc(-c3cccs3)o2)cc1 29.4%
CCn1c(=O)c2sccc2n2c(CCC(=O)N3CCN(c4ccc(C(C)=O)cc4)CC3)nnc12 -7.16%
CNC(=O)c1c(NC(=O)/C=C/c2ccccc2Cl)sc2c1CCC2 -20.3%
O=C(Cn1c(-c2cccs2)cc2cc(Cl)ccc21)N1CCN(c2ccccc2F)CC1 -29.2%
COc1ccc(C(=O)c2oc3ccccc3c2NC(=O)COc2cccc(C)c2C)cc1 5.17%
CCC(=O)Nc1ccc(CC)cc1-c1nc2ccccc2n(Cc2ccccc2)c1=O -24.5%
CC1CCC(NC(=O)c2cc3c(Cl)nc4ccccc4c3s2)CC1 (centres undefined) 32.2%
CC(=O)Nc1ccccc1-c1nc2ccccc2n(Cc2cccc(Br)c2)c1=O 0.104%
CCOc1ccccc1NC(=O)Cn1c(=O)n(Cc2ccccc2)c(=O)c2cccnc21 -15.7%
Cc1cc(C)c(NC(=O)Cn2nnc(-c3ccccc3)n2)c(C)c1 1.43%
CCOC(=O)C(C)NC(=O)C1CCN(c2ncnc3c2nc2n3CCCCC2)CC1 (centres undefined) 5.67%
O=C(CN1CCCN(Cc2ccccc2Cl)S1(=O)=O)NCc1ccccc1 -11.9%
Cc1cccn2c(=O)cc(COc3cccc(NC(=O)COc4ccc(F)cc4)c3)nc12 4.82%
CC(C)N(Cc1ccccc1)C(=O)Cn1ncc2c([nH]c3ccccc32)c1=O -10.2%
CCC1CCCCN1CC(=O)Nc1cc(C)c2c(=O)oc3ccccc3c2n1 (centres undefined) 3.65%
O=C(CSc1nc2c([nH]c3ccccc32)c(=O)n1-c1ccc(Cl)cc1)N1CCOCC1 -11%
Cc1ccc(NC(=O)N2CCC(c3ccccc3)C2)cc1C (centres undefined) 55.2%
O=S(=O)(NCC(c1ccco1)N1CCOCC1)c1cc(F)ccc1F (centres undefined) -2.48%
Cc1cccc(NC(=O)CSc2c(C)cnc3c2c(=O)n(C)c(=O)n3C)c1C -2.82%
CCc1nn(C(CC)C(=O)NCc2ccc(F)cc2)c(=O)c2cc3occc3n12 (centres undefined) -18%
COc1cc(C(=O)NCC(c2ccco2)S(=O)(=O)c2ccccc2)cc(OC)c1OC (centres undefined) 1.57%
CCCOc1ccc(C(=O)N(Cc2ccc(N(C)C)cc2)CC2CCCO2)cc1 (centres undefined) -19.6%
O=C(c1cc2c(s1)-c1ccccc1OC2)N1CCN(c2ccccc2)CC1 -13.2%
CC1=C(C(=O)Nc2ccccc2)C(CC(C)C)n2nc(SCc3ccccc3C)nc2N1 (centres undefined) 4%
CCCN(CCC)CCCNC(=O)Cn1ncc2c3ccccc3n(Cc3ccccc3)c2c1=O 17.3%
Cc1ccc(NC(=O)Cc2csc(C)n2)c(C)c1 12.3%
Cc1ccc(C(=O)Nc2ccc(OCc3cc(=O)n4c(C)csc4n3)cc2)cc1 5.05%
Cc1cccc(NC(=O)CSc2nncn2C)c1 -0.211%
Cc1ccc(Nc2c(-c3ccc(O)cc3)nc3cccc(C)n23)cc1 0%
Cc1nc(-c2ccc(Cl)cc2)sc1CCNC(=O)c1cccs1 -35.3%
CCN(CC)CCN(C(=O)c1ccco1)c1nc2ccc(Br)cc2s1 5.98%
O=C(c1ccc2c(c1)N(Cc1ccccc1)C(=O)c1ccccc1S2(=O)=O)N1CCCCCC1 6.65%
CCC(C)NC(=O)CSc1nc2c(sc3ccccc32)c(=O)n1Cc1ccccc1Cl (centres undefined) -24.7%
Cc1ccc(C)c(CSc2nc3ccncc3n2CC(=O)Nc2ccc(N(C)C)cc2)c1 -18.4%
Cc1cccc2nc(-c3cccc(NS(=O)(=O)c4ccccc4)c3)cn12 -35.6%
Clc1ccccc1CNc1ncnc2c1c(-c1ccccc1)cn2-c1ccccc1 -26.7%
Cc1ccc(C)c(Cn2c3ccccc3c3cnn(CC(=O)NCc4ccccc4)c(=O)c32)c1 1.54%
Fc1ccccc1Cn1c(-c2ccccc2)nc2ccccc21 -21.6%
COCCCNC(=O)CSc1nc2c(sc3ccccc32)c(=O)n1CCCC(=O)NCCOC -14.6%
COc1cccc(N2CC(NC(=O)c3cccc(OC)c3OC)CC2=O)c1 (centres undefined) -17.5%
CC(=O)c1ccc(NC(=O)COCc2cc(-c3ccco3)on2)cc1 -10.4%
Cc1ccc(-c2cc(C(=O)Oc3ccccc3)c3cc(C)ccc3n2)cc1 14%
COc1ccc2c(c1)c1c(c(=O)n(-c3cccc(Cl)c3)c(=O)n1CC(=O)N1CCCC1)n2C -4.33%
CCC1CCCCN1CCCNC(=O)CN1C(=O)CSc2ccc(S(=O)(=O)N3CCOCC3)cc21 (centres undefined) -11.4%
Clc1ccccc1CN1CCc2sccc2C1
CCOc1ccccc1NC(=O)Cn1ccn(Cc2ccc(C)cc2)c(=O)c1=O -25%
COc1ccc(/C=C\C(=O)NC2CC(=O)N(c3ccccc3)C2)cc1OC (centres undefined) -2.56%
COc1cc(NC(=O)c2nc(-c3ccncc3)no2)cc(OC)c1OC 7.08%
Cc1ccc(CN(C(=O)COc2c(C)cccc2C)C2CCS(=O)(=O)C2)o1 (centres undefined) -8.14%
COC(=O)c1nc2n(n1)C(c1cc(OC)ccc1OC)C(C(=O)Nc1ccc(C)cc1C)=C(C)N2 (centres undefined) -8.75%
Cc1ccc2oc3c(c(=O)c2c1)C1(C(=O)N(C)c2ccccc21)N(CCCO)C3=O (centres undefined) -14.6%
COc1ccc2oc(-c3ccc(C)c(NC(=O)COc4cc(C)cc(C)c4)c3)nc2c1 5.7%
CCc1ccc(-n2c(=O)c3c4c(sc3n(CC(=O)c3ccc(Cl)cc3)c2=O)CCC4)cc1 -0.307%
O=C(CCS(=O)(=O)c1cccc2nsnc12)Nc1ccc(F)cc1 -10.5%
Cc1ccc(-n2nnc(C(=O)Nc3cc(F)ccc3F)c2C)cc1F 75.5%
COc1ccccc1NC(=O)c1sc2nc3c(cc2c1N)CCCCCC3 -24.4%
O=C(c1ccccc1)N1c2ncnn2C2(CCCCC2)[C@@H]2CCCC[C@@H]21 -31.1%
Cc1ccccc1C(=O)Nc1cc(-c2ccc(Cl)cc2)nn1-c1ccccc1 10.4%
Cc1nn(-c2ccc(N3CCOCC3)nn2)c(C)c1CCC(=O)NCc1ccc(F)cc1 -0.441%
Cc1ccc(NC(=O)C2CCN(c3cc(C)nc4c(-c5ccc(Cl)cc5)c(C)nn34)CC2)c(C)c1 -11.7%
COc1ccccc1N1CCN(C(=O)CN2C(=O)COc3ccc(S(=O)(=O)N4CCC(C)CC4)cc32)CC1 -2.8%
CCOc1ccc(NC(=O)CSc2nc3c(oc4ccccc43)c(=O)n2CCOC)cc1 -16.8%
Cc1ccn2c(=O)cc(COc3ccc(NC(=O)c4ccccc4F)cc3)nc2c1 1.65%
